According to PubChem BioAssay AID1458 (National Center for Advancing Translational Sciences (NCATS), 2008):
In all, about 210,000 compounds went through this assay and about 5,900 (2.8%) were called active. Inconclusive means that the source gave no clear call. Such entries were picked first, then a sample of the others. Calls come from the whole dose curve; as a rule, active = well fitted activation curve with a large enough effect; inconclusive = small, poorly fitted or top-dose-only effect; inactive = no such curve, though single readings can be large or run the other way. Potencies beside an inconclusive call are fits to weak or partial responses and may not hold up.

assay: qHTS Assay for Enhancers of SMN2 Splice Variant Expression; details: HEK293 SMN2-luciferase splicing reporter, luminescence, 30-36 h; activity change, positive = activation: at 46.1 µM (top of the series); note: nearly all actives have a fitted effect of over 55% in size; for activity change, positive = activation: % of control where 0% means no effect
In short: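 HEK293 cells carry an SMN2 minigene-luciferase reporter in which exon 7 inclusion puts luciferase in frame. Cells were seeded at 2000 cells/well, attached for 10-12 hours, then exposed to compounds for 30-36 hours at 37C before ONE-Glo luminescence.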
Potency is the fitted concentration of half-maximal effect; tags give direction and shape of the fitted curve.

SMILES	Potency	activity change, positive = activation
CCCCN1C(=N)C(CC)(CC)C(=O)NC1=O	inconclusive: 0.355 µM [activator, partial curve, poor fit]	–
CCCCCCn1c(O)c(C=NC2CCN(Cc3ccccc3)CC2)c(=O)[nH]c1=O	–	inactive: -59.8%
CC(ON1CC1(C(F)(F)F)C(F)(F)F)(C(N)=O)C(N)=O (stereo not given)	–	inactive: 5.6%
[N-]=[N+]=[N-]	–	inactive: -4.71%
C=CCN1C(=O)/C(=C/c2ccc(N3CCOCC3)o2)C(=O)NC1=S	inconclusive: 4.47 µM [activator, partial curve, poor fit]	–
NC(=NCCc1ccc(I)cc1)SCCCc1cnc[nH]1	–	inactive: -41.2%
CCOc1ccc2nc(N=Nc3c(O)[nH]c(=S)[nH]c3=O)sc2c1	–	inactive: 3.05%
CN1CCC(N(C)c2nc(-c3ccccc3)nc3ccccc23)CC1	inconclusive: 25.1 µM [activator, partial curve, poor fit]	–
CCOc1cccc(N2C(=O)CC(=O)NC2=O)c1	inconclusive: 0.501 µM [activator, full curve, poor fit]	–
COc1ccc(C[C@H]2NC[C@H](O)[C@H]2OC(C)=O)cc1	–	inactive: -74.3%
CNC(=O)Oc1ccc(-c2cn3cc(C)ccc3n2)cc1	active: 1.78 µM	–
CN(C)NC(=O)CCC(=O)O	–	inactive: 11.8%
CS(=O)(=O)O[C@H]1CN2CCC1CC2	–	inactive: -8.9% [at 9.22 µM]
O=C(C1CCCN(c2nnc(-n3cccc3)s2)C1)N1CCC2(CC1)OCCO2 (stereo not given)	–	inactive: 17.9%
CCN1CCN(/C=N/c2nc(C)cs2)CC1	inconclusive: 35.5 µM [activator, partial curve, poor fit]	–
Cc1cc(NC(=O)CCl)on1	–	inactive: 26.6%
O=C(C1CC(c2ccc(Cl)c(Cl)c2)=NO1)N1CCC2(CC1)OCCO2 (stereo not given)	active: 12.6 µM	–
COc1cc2[nH]c(=O)n(-c3cccc(Cl)c3)c(=O)c2cc1OC	inconclusive: 4.47 µM [activator, full curve, poor fit]	–
CCOCCCn1c(N)c(C(=O)Nc2sc3c(c2C(=O)OC)CCCC3)c2nc3ccccc3nc21	inconclusive: 0.0045 µM [activator, full curve, poor fit]	–
COc1cccc(C(C#N)N2CCCCC2)c1O (stereo not given)	inconclusive: 0.794 µM [activator, full curve, poor fit]	–
N#Cc1ccccc1Cn1cc(C(=O)C2CC2)c2ccccc21	inconclusive: 0.0056 µM [activator, full curve]	–
CN(C)C(=O)Oc1ccc(-c2cn3cc(Cl)ccc3n2)cc1	active: 8.91 µM	–
Cc1ccc(NC(=O)c2cn(CCC#N)nc2-c2ccc3c(c2)OCCO3)c([N+](=O)[O-])c1	–	inactive: 17.9%
O=C(O)C(Oc1nc(=S)[nH]c(=S)[nH]1)(c1ccc(Cl)cc1)c1ccc(Cl)cc1	–	inactive: 1.11% [at 9.22 µM]
Cc1ccnc(-n2c(C)nc3ccccc3c2=O)c1	inconclusive: 10 µM [activator, single point]	–

SMILES	Potency	activity change, positive = activation
CC(=O)c1ccc(OC(=O)N(C)c2ccccc2)cc1	active: 15.8 µM	–
CC1(C)CC(=O)C2=C(C1)OC(N)=C([N+](=O)[O-])C2c1ccc(C#N)s1 (stereo not given)	inconclusive: 22.4 µM [activator, single point]	–
C=CCn1c(O)c(/C=C/C=Nc2ccccc2)c(=O)[nH]c1=O	–	inactive: -5.59%
O=C(Oc1ccccc1)c1cccc(COC(=O)c2cnccn2)c1	inconclusive: 22.4 µM [activator, partial curve, poor fit]	–
COc1cc(OC)c(OC)cc1CNCCc1ccc(OC)c(OC)c1	inconclusive: 1.58 µM [activator, full curve]	–
Cc1ccccc1-c1nc(CS(=O)CC(=O)N2CCN(c3cc(Cl)ccc3C)CC2)c(C)o1 (stereo not given)	–	inactive: -70.6%
COc1ccccc1CN1CCN(C(=O)COc2ccccc2)CC1	–	inactive: -6.58%
CC[N+](C)(C)c1cccc(O)c1	inconclusive: 3.55 µM [activator, single point]	–
C=CCn1c(O)c(C(C)=Nc2ccc(C(=O)OCC)cc2)c(=O)[nH]c1=O	inconclusive: 10 µM [activator, partial curve, poor fit]	–
C=Cn1ccnc1P(=S)(c1nccn1C=C)c1nccn1C=C	–	inconclusive: 37.9% [activator]
CC(=O)Oc1c2c(c(CC=C(C)C)c3c1C(=O)C1=CC4CC5C(C)(C)OC(C/C=C(\C)C(=O)O)(C4=O)[C@]15O3)OC(C)(CCC=C(C)C)C=C2 (stereo not given in full)	–	inactive: -94.8%
Nc1c2c(nc3sc4c(c13)CCCCC4)CCCC2	active: 11.2 µM	–
COc1ccc(C(c2c(O)c3ccccc3oc2=O)c2c(C)n(C)n(-c3ccccc3)c2=O)cc1 (stereo not given)	inactive	–
Cc1ccc(S(=O)ON2CCC(C(=O)O)(c3ccccc3)CC2)cc1 (stereo not given)	–	inactive: -1.47% [at 9.22 µM]
O=C(O)c1cccc2c1NC(C(=O)O)C1CC(Sc3ccccc3[N+](=O)[O-])C(Cl)C21 (stereo not given)	inconclusive: 0.0032 µM [activator, full curve]	–
CCOC(=O)C1=C(C)OC(N)=C(C(=O)OCC)[C@@]12C(=O)N(CC(N)=O)c1ccccc12	inconclusive: 0.0056 µM [activator, full curve, poor fit]	–
Cc1ccc(Cl)cc1N1CCN(C(=O)c2cn(C)c(=O)c3c2c2ccccc2n3C)CC1	inconclusive: 5.62 µM [activator, partial curve, poor fit]	–
COc1ccc(OC(=O)Nc2ccccc2)cc1	inconclusive: 12.6 µM [activator, single point]	–
O=C(Oc1ccc2cc(Br)ccc2c1)N1CCCCCC1	inconclusive: 5.01 µM [activator, full curve, poor fit]	–
COc1cc2c3c(c1OC)-c1cc(O)ccc1CC3NCC2 (stereo not given)	–	inconclusive: 35.2% [activator]
ClP(Cl)(Cl)(Cl)Cl	–	inactive: 2.77%
Cc1ccnc(SCc2nc3ccccc3s2)n1	active: 11.2 µM	–
Brc1cccc(-c2ccccc2)c1	–	inactive: 6.83%
C[C@H](Cc1ccc2c(c1)OC(C(=O)O)(C(=O)O)O2)NC[C@H](O)c1cccc(Cl)c1	inconclusive: 0.562 µM [activator, full curve, poor fit]	–
CC1CCN(CC(=O)c2ccc3c(c2)OCCO3)CC1	active: 12.6 µM	–

SMILES	Potency	activity change, positive = activation
O=C1NC(=O)N(c2ccccc2F)C(=O)/C1=C/c1ccc(Sc2nc3ccccc3[nH]2)o1	–	inactive: 3.2% [at 1.84 µM]
COc1ccc(Cn2c(O)c(/C=N/NC(=O)c3ccccc3O)c(=O)[nH]c2=O)cc1	inconclusive: 35.5 µM [activator, single point]	–
NP(=O)(OCC(F)(F)F)Oc1ccc(Cl)cc1 (stereo not given)	inconclusive: 0.0089 µM [activator, full curve]	–
O=C(Nc1ccc(Cl)cc1)Nc1nccs1	inconclusive: 1.58 µM [activator, partial curve]	–
C=CCn1c(O)c(C(C)=Nc2ccc(N(C)C)cc2)c(=O)[nH]c1=O	inconclusive: 7.94 µM [activator, partial curve]	–
Cc1ccc(C(=O)Nc2c(C(=O)Nc3ccc(C)c(C)c3)sc3nc(C)cc(C)c23)cc1	active: 12.6 µM	–
COP(=O)(OC)C(Nc1ccccn1)c1ccccc1 (stereo not given)	inconclusive: 0.355 µM [activator, full curve]	–
Cc1oc(-c2cccs2)nc1CSCC(=O)N1CCC2(CC1)OCCO2	inconclusive: 5.62 µM [activator, single point]	–
CC1=C/C(=N\NC(=S)NCCc2ccccc2)CC(C)(C)C1	inconclusive: 20 µM [activator, single point]	–
O=C(CCl)NN=C(c1ccccc1)c1ccccc1	inconclusive: 3.98 µM [activator, single point]	–
C[C@@H]1O[C@@H](O[C@H]2C[C@@H](O)[C@]3(CO)[C@H]4[C@H](O)C[C@]5(C)[C@@H](C6=CC(=O)OC6)CC[C@]5(O)[C@@H]4CC[C@]3(O)C2)[C@H](O)[C@H](O)[C@H]1O	–	inactive: -76.4%
O=C(Oc1ccc2ccc(OC(=O)N3CCCCCC3)cc2c1)N1CCCCCC1	–	inactive: -36.4%
CC(C)(C)C(=O)OCC12CCC(O1)C1(C)C(=O)OCC21 (stereo not given)	inconclusive: 0.158 µM [activator, full curve, poor fit]	–
O=C(CN1CCCCC1)c1cccc(Br)c1	–	inconclusive: 32.9% [activator]
COc1cccc(-n2c(C)nc3ccccc3c2=O)c1	inconclusive: 6.31 µM [activator, full curve, poor fit]	–
CC1CCN(CC(=O)c2ccccc2Cl)CC1	inconclusive: 35.5 µM [activator, single point]	–
Cc1cc(NC(=O)c2noc3c2CCCCC3)no1	inconclusive: 14.1 µM [activator, single point]	–
C=CCc1cc(OC)c2c(c1)OCO2	inconclusive: 31.6 µM [activator, partial curve, poor fit]	–
COc1cccc(Cn2c(-c3cccs3)noc2=O)c1	inconclusive: 5.62 µM [activator, single point]	–
CN(C)c1ccc(/C=C2/C(=O)NC(=O)N(Cc3ccco3)C2=O)cc1	–	inactive: -9.19%
Cc1ccc(OCC(=O)Nc2ccc(Cl)cc2C(=O)c2ccccc2)cc1C	inconclusive: 6.31 µM [activator, single point]	–
ClCc1ccccn1	–	inactive: -0.497%
NC(N)=NOCCC(N)C(=O)O (stereo not given)	inconclusive: 4.47 µM [activator, single point]	–
Cc1ccc(-c2nn3c(C)nnc3c3ccccc23)cc1S(=O)(=O)NCCO	inconclusive: 25.1 µM [activator, single point]	–
CC(=O)O[C@H]1CC[C@H]2[C@@H]3CCC4=C[C@@H](C5SCCS5)[C@H](OC(C)=O)C[C@]4(C)[C@H]3CC[C@@]12C	–	inactive: -3.38% [at 9.22 µM]
